From PubChem BioAssay AID485281 (National Center for Advancing Translational Sciences (NCATS), 2010)
“And” between values parts separate entries of the source, which are not always exact repeats. Identical values can stand only once. Out of some 350,000 compounds screened, about 260 (0.074%) were called active. Inconclusive means that the source gave no clear call. Such entries were picked first, then a sample of the others. Calls follow the shape of the dose curve; as a rule, active = well fitted inhibition curve with a large enough effect; inconclusive = small, poorly fitted or top-dose-only effect; inactive = no such curve, though single readings can be large or run the other way. Where the call is inconclusive, the potency comes from a doubtful curve fit.

biological target: Ferritin light chain (Equus caballus) (UniProt P02791); assay: qHTS Assay for Identification of Novel General Anesthetics; conditions: apoferritin/1-aminoanthracene competitive binding, fluorescence; activity change, negative = displacement: at 77.5 µM (top of the series); also: nearly all actives have a fitted effect of over 20% in size
Procedure, shortened: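 Apoferritin-based anesthetic binding model; compound displacement of fluorescent 1-AMA measured as endpoint fluorescence after 10 minutes at room temperature, scaled to free-ligand and complex controls.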
% is scaled to controls: 0 for no effect and ±100 for the full control effect; potency is read from the fitted curve at half-maximal effect; tags tell the direction and shape of the fitted curve.

Sequence of UniProt P02791 (P02791 whole entry, looked up): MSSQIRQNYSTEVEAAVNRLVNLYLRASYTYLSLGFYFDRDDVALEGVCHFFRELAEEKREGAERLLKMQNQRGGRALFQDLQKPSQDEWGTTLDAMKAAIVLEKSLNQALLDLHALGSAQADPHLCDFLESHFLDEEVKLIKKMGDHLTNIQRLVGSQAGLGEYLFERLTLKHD

Compound | Potency | activity change, negative = displacement
Cc1oc(-c2ccccc2)cc1C(=O)Nc1ccc(N(C)C)cc1 | inconclusive: 15.8 µM [inhibitor, partial curve] | 
CCOc1cccc(C(=O)N(Cc2ccc(N(C)C)cc2)CC2CCCO2)c1 (configuration not stated) |  | inactive: -7.76%
Cc1ccccc1CC1C(=O)Nc2ccc(Br)cc21 (configuration not stated) | inconclusive: 10 µM [inhibitor, partial curve] | 
O=[N+]([O-])c1ccccc1/C=N/n1c(C2CCCCC2)n[nH]c1=S | inconclusive: 39.8 µM [inhibitor, single point] | 
Cc1occc1C(=O)NCCc1ccc(Cl)cc1 | inconclusive: 20 µM [inhibitor, partial curve] | 
CC1CCN(S(=O)(=O)c2ccc3c(ccc(=O)n3CC(=O)Nc3ccc(C(C)C)cc3)c2)CC1 | inconclusive: 2 µM [inhibitor, full curve, poor fit] | 
CC(C)(C)c1ccc(OCC(=O)N/N=C/C2CC=CCC2)cc1 (configuration not stated) | inconclusive: 15.8 µM [inhibitor, partial curve] | 
Cc1cc(=O)oc2n[nH]c(-c3ccccc3)c12 |  | inactive: -12.7%
CCn1c(SCC(=O)N/N=C/C(C)=C/c2ccco2)nnc1-c1ccccc1 | inconclusive: 20 µM [inhibitor, partial curve] | 
CC(C)(CNc1ccc(C(F)(F)F)cc1[N+](=O)[O-])N1CCOCC1 | inconclusive: 17.8 µM [inhibitor, partial curve] | 
CCCCCCNS(=O)(=O)c1ccccc1Br | inconclusive: 22.4 µM [inhibitor, partial curve] and inconclusive: 6.31 µM [inhibitor, full curve] | 
O=S(=O)(NCCCc1ccccc1)c1cccc2nsnc12 | inconclusive: 39.8 µM [inhibitor, single point] | 
Nc1nc(SCC(=O)Nc2cccc(C(F)(F)F)c2)n[nH]1 | inconclusive: 35.5 µM [inhibitor, partial curve] | 
Cc1ccc(CSc2nnc(Nc3ccc(C)cc3)s2)cc1 | inconclusive: 17.8 µM [inhibitor, partial curve] | 
Fc1ccccc1NC(=S)NCCc1ccc(Cl)cc1 |  | inactive: -17.9%
Cc1c(N2C(=O)CS/C2=N\N=C\c2ccc(Br)cc2)c(=O)n(-c2ccccc2)n1C | inconclusive: 20 µM [inhibitor, partial curve] | 
CCC(C)c1ccc(OCCn2cc(/C=N/NC(=O)CSc3nnc(C)s3)c3ccccc32)cc1 (configuration not stated) | inconclusive: 31.6 µM [inhibitor, partial curve] | 
Cc1cc(C)cc(NS(=O)(=O)c2ccc(-n3cccn3)cc2)c1 | inconclusive: 28.2 µM [inhibitor, partial curve] | 
COc1ccc(-c2cccc(NS(=O)(=O)c3ccc(C)s3)c2)nn1 |  | inactive: -9.38%
CN(C)c1nc(C=C(C#N)C#N)c(Cl)n1-c1ccc(F)cc1 |  | inactive: -17.9%
CN(CCC1CCCCO1)C(=O)c1cc(COc2ccc(F)cc2F)on1 (configuration not stated) | inconclusive: 35.5 µM [inhibitor, partial curve] | 

Compound | Potency | activity change, negative = displacement
Cc1ccc(N(C)S(=O)(=O)c2cc(-c3cnc(C4CC4)o3)ccc2C)cc1 |  | inactive: -5.77%
CC1CCC(Nc2ncnc3onc(-c4ccc(F)cc4)c23)CC1 (configuration not stated) | inconclusive: 3.55 µM [inhibitor, full curve] | 
C=Cc1ccc(Cn2nc(-c3ccccc3)ccc2=O)cc1 |  | inactive: -7.92%
Cc1ccc(C)c(N2CCN(C(=O)c3cc4c(=O)n(Cc5ccco5)ccc4nc3C)CC2)c1 | inconclusive: 35.5 µM [inhibitor, single point] | 
O=c1[nH]c2cc3c(cc2cc1CN(Cc1ccccc1)Cc1nnnn1Cc1ccco1)OCCO3 |  | inactive: 257%
C=CCn1c(=O)c2ccccc2n2c(SCc3nc4ccccc4s3)nnc12 | inconclusive: 25.1 µM [inhibitor, partial curve] | 
COC(=O)c1cc(S(=O)(=O)NCC2CCN(Cc3ccc(C)cc3)CC2)cn1C | inconclusive: 7.08 µM [inhibitor, single point] | 
COc1ccc(S(=O)(=O)N2CCOC23CCN(C(=O)c2ccc(Cl)cc2Cl)CC3)cc1 |  | inactive: -10.2%
CCCN(CCC)c1nc2ccccc2nc1C(C#N)C(=O)OC(C)COC (configuration not stated) | inconclusive: 35.5 µM [inhibitor, partial curve] | 
Cc1cccc(NS(=O)(=O)c2ccc3c(c2)[C@H]2C=CC[C@H]2[C@@H](c2ccc(F)cc2)N3)c1 | inconclusive: 25.1 µM [inhibitor, partial curve] | 
CCc1ccc(C(=O)c2cn(CC(=O)Nc3cc(OC)ccc3OC)c3ccc(C)cc3c2=O)cc1 | inconclusive: 7.08 µM [inhibitor, partial curve] | 
O=C(NCc1ccc2c(c1)OCO2)c1ccc(Cl)c(S(=O)(=O)N2CCOCC2)c1 | inconclusive: 35.5 µM [inhibitor, single point] | 
O=C(O)CC(NC(=O)Nc1ccccc1)c1ccc(OC2CCCC2)cc1 (configuration not stated) | inconclusive: 35.5 µM [inhibitor, single point] | 
CCN(CC)S(=O)(=O)c1ccc(N2CCOCC2)c(NC(=O)COc2ccccc2)c1 | inconclusive: 14.1 µM [inhibitor, partial curve] | 
O=C(N/N=C/c1ccc2c(c1)OCO2)C1COc2ccccc2O1 (configuration not stated) | inconclusive: 35.5 µM [inhibitor, partial curve] | 
O=C(CNC(=O)c1ccco1)N/N=C/c1c[nH]c2ccccc12 | inconclusive: 22.4 µM [inhibitor, partial curve] | 
O=C(NCc1ccncc1)C12CC3CC(CC(C3)C1)C2 | inconclusive: 7.94 µM [inhibitor, partial curve, poor fit] | 
Cc1ccnc2nc(C(=O)OCCOc3cccc(Br)c3)nn12 | inconclusive: 39.8 µM [inhibitor, single point] | 
COc1ccccc1CNC(=O)c1cccc(N(C)C)c1 | inconclusive: 44.7 µM [inhibitor, single point] | 
Cc1nnc(SCC(=O)Nc2ncc(Cc3ccc(F)cc3)s2)n1N | inconclusive: 14.1 µM [inhibitor, partial curve] | 
Cc1ccc(NC(=O)COC(=O)CCOc2ccccc2C)cc1 | inconclusive: 12.6 µM [inhibitor, partial curve] | 
